The source gives no read counts; variants with many changes may rest on few reads.
B1: LINE1-mini (parent)
chain: GGCAGAGCUCAACACAGCGUGGCAAAGUGGCUGUGGCUAGACUGCC

Variants of: B1
Assay: self-cleavage, relative activity (ratio to wild type); higher = more cleavage; in vitro, sequencing; the parent is a self-cleaving ribozyme
With G22U G27U U32C G35C U43C the self-cleavage was 0.08. For C23A A39U G40C C42G U43C, the self-cleavage was 0.01. In the case of C23A G35C U38G G44C, the self-cleavage is reported as 0.01. G22U G27U C42U gave a self-cleavage of 0.19. C23U G33C G40C gave a self-cleavage of 0.05. For G22U G27A C31U C42G, the self-cleavage was 0.04. C23U U28G G30A C45G showed a self-cleavage of 0.09. Variant G22U A41U G44A has a self-cleavage of 0.14. With C23A A26C A39G the self-cleavage was 0.07. G22U C45G C46U showed a self-cleavage of 1.16. With A24C A26U G27U the self-cleavage was 0.74. Variant G22U C31A C37A has a self-cleavage of 0.1. C23U G40C C42U showed a self-cleavage of 0.22. G22U C42U U43A gave a self-cleavage of 0.1. For G22U C42U U43G, the self-cleavage was 0.06. In the case of C23A G33C G44A, the self-cleavage is reported as 0.02. G22U G27A G29A showed a self-cleavage of 1.16. C23A U28G G33U C45G gave a self-cleavage of 0.05. Work on C23A G30C G40U yielded a self-cleavage of 0.4. With C23A G35U G36C the self-cleavage was 0.24. With C23A U32G A41U the self-cleavage was 0.47. Variant C23G G29A C42A has a self-cleavage of 0.19. Work on C23A A24C G44U yielded a self-cleavage of 0.22. In the case of C23G A24G G30C U32G G33A C37A A39C C42A, the self-cleavage is reported as 0.04. C23A A24C C31A gave a self-cleavage of 0.64. Variant C23G G33C A39C has a self-cleavage of 0.03. C23G A24C G36A showed a self-cleavage of 0.09. Work on G22U U34C C37U C46G yielded a self-cleavage of 0.09. For C23U A24G C31U G35A, the self-cleavage was 0.02. For C23A A25C A41U, the self-cleavage was 0.3. For C23A G30U U32C U38A, the self-cleavage was 0.67. G22U U38A C42U gave a self-cleavage of 0.43. C23G A24G A25U U32A showed a self-cleavage of 0.02. With C23G A25U G30C the self-cleavage was 0.4. G22U C23A G35A C42U showed a self-cleavage of 0.24. Work on C23A A25U A26G G30U yielded a self-cleavage of 2.92. For C23A C31G G40A, the self-cleavage was 0.04. For C23A U43A C46A, the self-cleavage was 0.2. Variant C23U G30A G36U U38A G44U has a self-cleavage of 0.23. In the case of C23U G35U G44C, the self-cleavage is reported as 0.03. With C23U U32C G33U G36C U43G the self-cleavage was 0.09. For C23G U34C C42A, the self-cleavage was 0.03. Work on C23U G30U C37G yielded a self-cleavage of 0.01. For C23G U28C G33A, the self-cleavage was 0.08. Work on G22U G30A C37A yielded a self-cleavage of 0. In the case of G22U C23A G29U G35U, the self-cleavage is reported as 0.03. For C23U G27U G36A, the self-cleavage was 0.02. In the case of G22U C23A G35U U43C G44A, the self-cleavage is reported as 0.09. With C23G G27U U28C the self-cleavage was 0.38. C23G A39U G40A gave a self-cleavage of 0.06. In the case of C23A G36C C42U, the self-cleavage is reported as 0.44. In the case of C23U G27A U38G A39G G40C, the self-cleavage is reported as 0.02. C23G G44U C45U gave a self-cleavage of 0.06. G22U G30A A39G gave a self-cleavage of 0.07. With G22U G30A A39U the self-cleavage was 0.19. With C23G U32C U34A the self-cleavage was 0.04. In the case of G22U G27U A39U, the self-cleavage is reported as 0.66. For C23A A24C G27U G29U, the self-cleavage was 0.49. Work on C23U U32G C42U U43G yielded a self-cleavage of 0. In the case of C23A U28A G29A U34C A41U, the self-cleavage is reported as 0.3. C23U U34C C46A showed a self-cleavage of 0.32. Work on G22U U32G U38A yielded a self-cleavage of 0.15. C23G G36A A41C showed a self-cleavage of 0.14. Work on C23G G30U G35U yielded a self-cleavage of 0.06. In the case of C23U G33C G36C A41G C46G, the self-cleavage is reported as 0.01. C23A G27C C31A G35U showed a self-cleavage of 0.01. For C23G C37U A41G, the self-cleavage was 0.06. With G22U G33A C42G the self-cleavage was 0.85. C23U A24U G30U G40A showed a self-cleavage of 0.15. C23G G29C C31U showed a self-cleavage of 0.3. With C23U G30C C46U the self-cleavage was 2.08. C23U G29C G30U gave a self-cleavage of 0.91. Variant C23G G35A C45G has a self-cleavage of 0.82. C23A A25C G30U G36U gave a self-cleavage of 0. Variant G22U G27U G29U U38C has a self-cleavage of 0.37. With C23U U38G G40A the self-cleavage was 0.04. Variant C23A A24G A26C has a self-cleavage of 1.37. C23G C31U U32G C46A gave a self-cleavage of 0.02. C23U U28G C37A gave a self-cleavage of 0.02. C23U U28G C37G showed a self-cleavage of 0. Work on C23U C37A A41G yielded a self-cleavage of 0.14. With C23A A39G G44C the self-cleavage was 0.09. In the case of C23U A26U U38A G40U, the self-cleavage is reported as 0.1.

— the RNAGym collection of RNA variant scans (doi:10.7554/elife.90254)
